Experimental data published in PubChem BioAssay AID2546 (National Center for Advancing Translational Sciences (NCATS), 2010).
Screen size: about 310,000 compounds; about 11,000 (3.5%) were called active. The inconclusive results got no clear call from the source; some entries with a clear call stand among them for comparison. Calls come from the whole dose curve; as a rule, active = well fitted inhibition curve with a large enough effect; inconclusive = small, poorly fitted or top-dose-only effect, or effect the other way; inactive = flat fitted curve, though single readings scatter. Potencies of inconclusive entries are left out as doubtful fits.

Assay: VP16 counterscreen qHTS for inhibitors of ROR gamma transcriptional activity;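 note: Gal4-VP16 expression switched on by copper sulfate through the metallothionein promoter; nearly all actives have a fitted effect of over 50% in size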
Conditions: Drosophila S2 Gal4-VP16 UAS-luciferase, luminescence, 20 h; activity, negative = inhibition: at 53.6 µM (top of the series)
% is set by controls: 0 for no effect and ±100 for the full control effect; potency is the fitted concentration of half-maximal effect; tags give direction and shape of the fitted curve.

**Q.** For `Cc1ccccc1C(=O)NC(=S)NCC(=O)c1ccccc1`, which Potency is on record?
**A.** inconclusive [inhibitor, single point]

**Q.** Which Potency does the source give for `Cc1nc(NC(C)c2ccccc2)c2oc3ccccc3c2n1` (centres undefined) here?
**A.** active: 12.6 µM

**Q.** With `O=C(COC(=O)c1c(Cl)cccc1Cl)Nc1ccccc1Br` as the molecule, how does the Potency read?
**A.** inconclusive [inhibitor, single point]

**Q.** With `Cc1ccc(NC(=O)C2CCCO2)cc1[N+](=O)[O-]` (centres undefined) as the molecule, how does the Potency read?
**A.** inconclusive [activator, partial curve]

**Q.** For `COc1ccc(C(=O)NC(=S)Nc2ccccc2N2CCCCC2)cc1[N+](=O)[O-]`, which Potency is on record?
**A.** active: 1 µM

**Q.** With `Cc1cccc(C(=O)NC(=S)Nc2cccc3nc(C)ccc23)c1` as the molecule, how does the Potency read?
**A.** active: 10 µM

**Q.** For `Cc1ccccc1CSc1nnc2ccc(-c3ccncc3)nn12`, which “activity, negative = inhibition” value is on record?
**A.** inactive: -2.55%

**Q.** With `CC(C)(C)c1ccc(C(=O)Nc2cccc3c(=O)[nH][nH]c(=O)c23)cc1` as the molecule, how does the Potency read?
**A.** active: 3.55 µM

**Q.** With `Cc1ccc(C2CC(C(F)(F)F)n3ncc(C(=O)NCc4ccco4)c3N2)cc1` (centres undefined) as the molecule, how does the “activity, negative = inhibition” value read?
**A.** inactive: -10.2%

**Q.** For `CC(C)(C)C(=O)Nc1cccc(-c2nc3ccccc3c(=O)o2)c1`, which Potency is on record?
**A.** inconclusive [inhibitor, single point]

**Q.** For `CN1CCN(c2ccc(CNS(=O)(=O)Cc3cccc(C(F)(F)F)c3)cc2)CC1`, which Potency is on record?
**A.** inconclusive [inhibitor, single point]

**Q.** Which “activity, negative = inhibition” value does the source give for `COc1ccc(C(=O)NCc2nnc(SCC(=O)c3ccccc3)o2)cc1` here?
**A.** inactive: 2.38%

**Q.** Which “activity, negative = inhibition” value does the source give for `CCCC(=O)N(c1ccc(OCC)cc1)C1C=CS(=O)(=O)C1` (centres undefined) here?
**A.** inactive: 0.733%

**Q.** For `C=CCc1cccc(/C=N/NC(=O)COc2ccc(-n3cnnn3)cc2)c1O`, which Potency is on record?
**A.** inconclusive [inhibitor, single point]

**Q.** Which Potency does the source give for `CC(=O)c1ccc(NC(=O)CCc2nnc3ccc(N4CCC5(CC4)OCCO5)nn23)cc1` here?
**A.** inconclusive [inhibitor, single point]

**Q.** Which Potency does the source give for `CC1CCCCN1S(=O)(=O)c1ccc(C(=O)Nc2nnc(-c3ccccc3Cl)o2)cc1` (centres undefined) here?
**A.** active: 0.501 µM

**Q.** Which “activity, negative = inhibition” value does the source give for `Cc1nc2cc(-c3cccc(Cl)c3)nn2c(N2CCN(C(=O)c3ccco3)CC2)c1C` here?
**A.** inactive: 5.6%

**Q.** Which “activity, negative = inhibition” value does the source give for `CC(C)(C)OC(=O)NCCCC1=CC2=CC(=O)C(C)(O)C(=O)C2=CO1` (centres undefined) here?
**A.** inactive: -3.01%

**Q.** For `O=C(Cc1cccs1)N1CCC(c2nc3c(nnn3Cc3ccccc3Cl)c(=O)[nH]2)CC1`, which “activity, negative = inhibition” value is on record?
**A.** inactive: -6.13%

**Q.** For `C[N+]1(C)CCC(=C2c3ccccc3CC(=O)c3sccc32)CC1`, which “activity, negative = inhibition” value is on record?
**A.** inactive: -2.51%

**Q.** For `CCC(=O)NC(=S)Nc1cccc(NC(=O)c2ccc(Cl)cc2Cl)c1`, which Potency is on record?
**A.** active: 6.31 µM

**Q.** For `CSc1nc2sc3c(c2c(=O)n1C)CCC(C)C3` (centres undefined), which Potency is on record?
**A.** inconclusive [inhibitor, single point]

**Q.** For `C/C(=C\C=C\c1ccccc1)C(=O)c1c(C)cc(C)[nH]c1=O`, which “activity, negative = inhibition” value is on record?
**A.** inactive: 8.49%

**Q.** With `COc1cccc(NC(=O)NCCCCc2ccccc2)c1` as the molecule, how does the Potency read?
**A.** inconclusive [activator, full curve]

**Q.** Which Potency does the source give for `COc1cccc(/C=N/NC(=O)c2ccc(-c3ccccc3)cc2)c1O` here?
**A.** active: 3.16 µM

**Q.** Which Potency does the source give for `O=S(=O)(Nc1ccc(Oc2ncccn2)c(Cl)c1)c1ccc(Cl)cc1` here?
**A.** inconclusive [inhibitor, single point]

**Q.** Which Potency does the source give for `COc1ccc(-c2c(-c3ccc(OCC(=O)NN)cc3O)n[nH]c2C(F)(F)F)cc1` here?
**A.** active: 4.47 µM

**Q.** With `CCOC(=O)/C(=N\Nc1ccc(C(C)=O)cc1)c1csc(Nc2ccccc2)n1` as the molecule, how does the Potency read?
**A.** inconclusive [inhibitor, single point]

**Q.** With `Cc1cccc(NC(=S)N2CCN(c3ccccn3)CC2)c1` as the molecule, how does the Potency read?
**A.** inconclusive [inhibitor, single point]

**Q.** For `C=CCNc1oc(-c2ccc(OCC)cc2)nc1C#N`, which Potency is on record?
**A.** inconclusive [activator, single point]

**Q.** For `Cc1cccc(/C=N/NC(=O)c2ccccc2OCc2cccc(Br)c2)n1`, which Potency is on record?
**A.** inconclusive [inhibitor, single point]

**Q.** Which Potency does the source give for `O=C1CCCc2c1[nH]c1ccc(Br)cc21` here?
**A.** inconclusive [inhibitor, single point]

**Q.** For `CCCCCOC(=O)c1ccc(N2C(=O)C3C4C=CC(C4)C3C2=O)cc1` (centres undefined), which Potency is on record?
**A.** inconclusive [inhibitor, partial curve]

**Q.** With `O=C1c2[nH]nc(-c3ccccc3O)c2C(c2cccc(Cl)c2)N1Cc1ccco1` (centres undefined) as the molecule, how does the Potency read?
**A.** inconclusive [inhibitor, single point]

**Q.** Which “activity, negative = inhibition” value does the source give for `COC(=O)c1ccc(/C=C/c2c(-c3ccsc3)sc3ccccc23)cc1` here?
**A.** inactive: -0.624%

**Q.** Which Potency does the source give for `Cc1ccc2oc(=O)c3cc(C(=O)NCc4ccco4)sc3c2c1` here?
**A.** inconclusive [inhibitor, single point]

**Q.** For `Cc1ccc2c(c1)nnn2C1CCN(C(=O)NC23CC4CC(CC(C4)C2)C3)CC1`, which activity, negative = inhibition is on record?
**A.** inactive: -2.1% [at 0.365 µM]

**Q.** For `CCN(CC)c1ccc(/C=N/NC(=O)c2nnn(-c3nonc3N)c2C(C)C)c(O)c1`, which Potency is on record?
**A.** active: 5.01 µM

**Q.** Which “activity, negative = inhibition” value does the source give for `Cc1ccc2nc(N(CCCN(C)C)C(=O)c3ccc(Br)s3)sc2c1` here?
**A.** inactive: -10.4%

**Q.** With `COc1ccc(OCC(=O)NC(=S)Nc2ccc3c4c(cccc24)CC3)cc1` as the molecule, how does the Potency read?
**A.** inconclusive [inhibitor, single point]

**Q.** Which Potency does the source give for `CCOC(=O)c1c(-c2ccc(C)cc2C)csc1NC(=O)CSc1nnnn1C` here?
**A.** inconclusive [inhibitor, single point]

**Q.** Which Potency does the source give for `Cc1nc(NCCc2ccc(S(N)(=O)=O)cc2)c2c(C)c(C)sc2n1` here?
**A.** active: 10 µM

**Q.** With `COc1cccc(/C=N/N2C(=O)CSC2=S)c1O` as the molecule, how does the Potency read?
**A.** active: 4.47 µM

**Q.** With `Cc1ccc(Sc2nnc(Cc3ccccc3)c3ccccc23)cc1` as the molecule, how does the Potency read?
**A.** inconclusive [inhibitor, single point]

**Q.** For `CCOC(=O)C(C)Sc1nc(-c2ccccn2)ncc1OC` (centres undefined), which Potency is on record?
**A.** inconclusive [inhibitor, single point]

**Q.** With `O=C1Nc2ccc(F)cc2C12Nc1ccccc1-c1nnc(SCc3ccccc3F)nc1O2` (centres undefined) as the molecule, how does the Potency read?
**A.** inconclusive [inhibitor, single point]

**Q.** For `O=c1c2c(nc3c(-c4ccc(Cl)cc4)c[nH]n13)CCCC2`, which Potency is on record?
**A.** active: 6.31 µM

**Q.** With `O=C(CCN1CCc2ccccc2C(c2ccccc2)C1)c1ccc2c(c1)OCCO2` (centres undefined) as the molecule, how does the Potency read?
**A.** active: 3.55 µM

**Q.** With `CCc1ccc(/C=C2/Sc3ccccc3N(CC(=O)NCCCN3CCOCC3)C2=O)cc1` as the molecule, how does the Potency read?
**A.** inconclusive [inhibitor, single point]

**Q.** Which “activity, negative = inhibition” value does the source give for `CCOC(=O)C1=C(CN2CCCCCC2)NC(=O)NC1c1ccc2c(c1)OCO2` (centres undefined) here?
**A.** inactive: 15.2%

**Q.** For `Cc1ccc(/C(N)=N/OC(=O)CSc2ccccc2)cc1`, which Potency is on record?
**A.** inconclusive [inhibitor, single point]

**Q.** Which Potency does the source give for `CCC1CCC2(CC1)NNC(=S)NN2` here?
**A.** inconclusive [inhibitor, single point]

**Q.** For `CCOc1ccccc1C1CC(c2ccc(Br)cc2)Nc2nc(N)nn21` (centres undefined), which Potency is on record?
**A.** inconclusive [inhibitor, partial curve]

**Q.** Which “activity, negative = inhibition” value does the source give for `Cn1cc(/C=N/n2cnc3scc(-c4ccccc4)c3c2=O)c2ccccc21` here?
**A.** inactive: 6.35%

**Q.** Which Potency does the source give for `Cn1ccnc1C(O)c1ccc(OCc2ccccc2)cc1` (centres undefined) here?
**A.** inconclusive [inhibitor, single point]

**Q.** Which Potency does the source give for `COc1ccc(NC(=O)Cc2c(SC)c3ccccc3n2Cc2ccccc2)cc1` here?
**A.** inconclusive [inhibitor, single point]

**Q.** For `Cc1cc(=O)n(CC(=O)O)c2ccccc12`, which “activity, negative = inhibition” value is on record?
**A.** inactive: -2.2%

**Q.** With `C=CCN(CC=C)C(=O)C1CCC(C(=O)N(CC=C)CC=C)CC1` (centres undefined) as the molecule, how does the activity, negative = inhibition read?
**A.** inactive: -8.67% [at 0.365 µM]

**Q.** For `O=C(/C=C/c1ccco1)NC(=S)Nc1cc(C(F)(F)F)ccc1N1CCOCC1`, which Potency is on record?
**A.** inconclusive [inhibitor, single point]

**Q.** For `Cn1c(SCC(=O)NNC(=S)Nc2ccccc2)nnc1-c1ccccc1`, which Potency is on record?
**A.** active: 1.41 µM

**Q.** Which Potency does the source give for `O=C(CC(Sc1ccc(Br)cc1)C(=O)O)c1ccc(Br)cc1` (centres undefined) here?
**A.** inconclusive [inhibitor, single point]

**Q.** With `Cc1ccc(SCC(=O)c2cc(C)c(OC(=S)N(C)C)c(C)c2)cc1` as the molecule, how does the Potency read?
**A.** inconclusive [activator, single point]

**Q.** With `Cc1ccc(S(=O)(=O)NC(N)=NCCc2ccccc2)cc1C` as the molecule, how does the Potency read?
**A.** inconclusive [inhibitor, single point]

**Q.** Which Potency does the source give for `Cc1ccccc1CSCCNC(=S)Nc1ccccc1` here?
**A.** active: 7.08 µM

**Q.** With `Cc1cccc(Oc2c([N+](=O)[O-])c(=O)n(C)c3ccccc23)c1` as the molecule, how does the Potency read?
**A.** inconclusive [inhibitor, single point]

**Q.** With `O=C(NCCn1cc(SCc2ccc(F)cc2)c2ccccc21)c1ccccc1F` as the molecule, how does the Potency read?
**A.** inconclusive [inhibitor, single point]

**Q.** Which Potency does the source give for `C/C(=N\NC(=S)NC1CCCCC1)c1ccc(O)cc1` here?
**A.** inconclusive [inhibitor, single point]

**Q.** For `CCOc1cccc(C(=O)NC(=S)Nc2ccc(N3CCN(CC)CC3)cc2)c1`, which Potency is on record?
**A.** inconclusive [inhibitor, single point]

**Q.** With `Cc1nn(C)c(Oc2cccc(Cl)c2)c1C(=O)Nc1ccc(F)cc1` as the molecule, how does the “activity, negative = inhibition” value read?
**A.** inactive: -5.14%

**Q.** With `CCC(=O)O[C@@]1(C(=O)SCF)[C@@H](C)C[C@H]2[C@@H]3C[C@@H](F)C4=CC(=O)C=C[C@@]4(C)[C@]3(F)[C@@H](O)C[C@]21C` as the molecule, how does the “activity, negative = inhibition” value read?
**A.** inactive: -4.37% [at 17 µM]

**Q.** With `COc1cc(N)ccc1NC(=O)c1cccs1` as the molecule, how does the Potency read?
**A.** inconclusive [inhibitor, single point]

**Q.** With `CC(=O)Nc1sc(N/N=C\c2ccco2)nc1-c1cccs1` as the molecule, how does the Potency read?
**A.** inconclusive [inhibitor, single point]

**Q.** With `Cn1c(=O)[nH]c(=O)c2c1nc(N1CCCCC1)n2CCCSc1nnnn1-c1ccccc1` as the molecule, how does the “activity, negative = inhibition” value read?
**A.** inactive: -6.15%

**Q.** For `Oc1oc(-c2ccccc2)nc1C=NCc1ccccc1`, which Potency is on record?
**A.** inconclusive [inhibitor, single point]
